Test results as given in article PMC8222345.
Results are given in words; binding and its absence hold for the method and conditions named. Tags and fused reporters may be left off the sequences shown.

Chains of the proteins cited; added tags and fusions are not shown.
UniProt O75838: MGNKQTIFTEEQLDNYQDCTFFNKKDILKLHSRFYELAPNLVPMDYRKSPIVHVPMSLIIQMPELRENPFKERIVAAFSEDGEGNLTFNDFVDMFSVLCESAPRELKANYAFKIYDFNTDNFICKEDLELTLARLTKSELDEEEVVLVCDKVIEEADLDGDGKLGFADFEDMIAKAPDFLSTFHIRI

Target: GFP-hCIB2 (calcium and integrin binding protein 2) (human) (UniProt O75838)
Assay: nanoscale pulldown 2.0 (NanoSPD); COS-7 cells transfected with 1 µg each of nanoTRAP (myo10 HMM-GFP nanobody), GFP-tagged bait and prey; co-accumulation of the prey with the bait at filopodia tips in fixed cells, confocal microscopy, prey/bait fluorescence ratio

B1: FLAG-tagged TSC1 (protein, UniProt Q92574 1-1164)
chain: MAQQANVGELLAMLDSPMLGVRDDVTAVFKENLNSDRGPMLVNTLVDYYLETSSQPALHILTTLQEPHDKHLLDRINEYVGKAATRLSILSLLGHVIRLQPSWKHKLSQAPLLPSLLKCLKMDTDVVVLTTGVLVLITMLPMIPQSGKQHLLDFFDIFGRLSSWCLKKPGHVAEVYLVHLHASVYALFHRLYGMYPCNFVSFLRSHYSMKENLETFEEVVKPMMEHVRIHPELVTGSKDHELDPRRWKRLETHDVVIECAKISLDPTEASYEDGYSVSHQISARFPHRSADVTTSPYADTQNSYGCATSTPYSTSRLMLLNMPGQLPQTLSSPSTRLITEPPQATLWSPSMVCGMTTPPTSPGNVPPDLSHPYSKVFGTTAGGKGTPLGTPATSPPPAPLCHSDDYVHISLPQATVTPPRKEERMDSARPCLHRQHHLLNDRGSEEPPGSKGSVTLSDLPGFLGDLASEEDSIEKDKEEAAISRELSEITTAEAEPVVPRGGFDSPFYRDSLPGSQRKTHSAASSSQGASVNPEPLHSSLDKLGPDTPKQAFTPIDLPCGSADESPAGDRECQTSLETSIFTPSPCKIPPPTRVGFGSGQPPPYDHLFEVALPKTAHHFVIRKTEELLKKAKGNTEEDGVPSTSPMEVLDRLIQQGADAHSKELNKLPLPSKSVDWTHFGGSPPSDEIRTLRDQLLLLHNQLLYERFKRQQHALRNRRLLRKVIKAAALEEHNAAMKDQLKLQEKDIQMWKVSLQKEQARYNQLQEQRDTMVTKLHSQIRQLQHDREEFYNQSQELQTKLEDCRNMIAELRIELKKANNKVCHTELLLSQVSQKLSNSESVQQQMEFLNRQLLVLGEVNELYLEQLQNKHSDTTKEVEMMKAAYRKELEKNRSHVLQQTQRLDTSQKRILELESHLAKKDHLLLEQKKYLEDVKLQARGQLQAAESRYEAQKRITQVFELEILDLYGRLEKDGLLKKLEEEKAEAAEAAEERLDCCNDGCSDSMVGHNEEASGHNGETKTPRPSSARGSSGSRGGGGSSSSSSELSTPEKPPHQRAGPFSSRWETTMGEASASIPTTVGSLPSSKSFLGMKARELFRNKSESQCDEDGMTSSLSESLKTELGKDLGVEAKIPLNLDGPHPSPPTPDSVGQLHIMDYNETHHEHS
binding: no binding
